# Hit rate of the full screen: of about 150,000 compounds, about 540 (0.36%) showed an effect of 50% or more. Some of the results follow.
# Test system: Plasmodium falciparum
# Experiment: Primary screen in NF54 nanoGlo assay, in single point, at 2uM, 72h; a lower Z score goes with more inhibition
# Type: functional, Erythrocyte
# Conditions: timepoint 72 hour
Structure (SMILES),% Inhibition [%],Z score
CCN1C(=O)c2ccc(Cl)cc2NC12CCN(C(=O)CC(C)(C)C)CC2,2,-0.22
Cc1cccc2c(CCC(=O)N(CCC(=O)O)C3CCOCC3)c[nH]c12,-8,1.09
O=S(=O)(NCc1cccc(-n2ccnc2)c1)c1cccnc1,0,-0.01
COCC1(NC(=O)[C@H](C)c2cncnc2)CCCC1,-3,0.32
Cn1c(CN2CCCCCC2)nc2cc(NC(=O)c3cccc(Br)c3)ccc21,-4,0.7
C[C@H](NC(=O)c1ccc(B(O)O)cc1)C1CCC(F)(F)CC1,-11,1.08
Cc1ccc(CNC(=O)CN2CCC3(CC2)NC(c2ccc(OC(F)(F)F)cc2)=NO3)cc1,30,-3.99
Cc1ccc(C(=O)Nc2nc3c(s2)CN(S(=O)(=O)c2ccccc2)CC3)cc1Br,-8,0.74
CC(C)c1ccc(-c2ccnc3c(C(=O)N4CCN(c5ccccc5F)CC4)cnn23)cc1,34,-3.84
Cc1nc(CCC(=O)N2CCCCCC2)n(CCO)n1,14,-1.82
Cc1cnc(C)c(-c2cccc(-c3ccn(C[C@H](O)c4ccccc4)n3)c2)n1,3,-0.46
CC(C)c1cc(NCCCn2ccnn2)nc(N)n1,-5,0.75
O=C(CCCc1ccccc1)NC1CC(O)C(CO)C1 (stereo not drawn),-8,1.28
NC(=O)c1cccnc1NCCc1cn2ccccc2n1,-5,0.73
Cn1ncc2c(=O)n(Cc3cccc4cccnc34)cnc21,-4,0.48
Fc1cccc2c1CC[C@@H]2n1cc(C2CCOC2)nn1 (stereo partly drawn),2,-0.22
Cc1cc(C)n(CCN(C)C(=O)CCOc2ccccc2)n1,-23,2.2
O=C(Cc1ccccc1F)Nc1ccnn1C1CCCC1,3,-0.42
CN1CCN(c2cccc(NC(=O)N3C[C@H]4CC[C@@H](C3)N(C)C4=O)c2)C1=O,-7,1.25
CC(C)NC(=O)c1nsc(C(=O)N2CCCC2)c1N,-16,1.85
Cc1nc2ccc(N(C)C(=O)c3nc(C)c(C)[nH]c3=O)cc2s1,-12,1.23

Structure (SMILES),% Inhibition [%],Z score
Cc1nnsc1CN(C)C(=O)Cn1cnc2ccccc2c1=O,-14,1.39
CC[C@H](Nc1ncc(Cl)cn1)C1CCOCC1,-5,0.48
COC(=O)CCC(=O)N1CCN(c2nc3nccc(-c4ccc(Cl)c(Cl)c4)n3n2)CC1,-25,2.25
CN(C(=O)c1cscn1)c1ncccc1Br,-1,0.16
Cc1nc(-c2cc(C(C)C)n3ncnc3n2)n(C2CCN(C)CC2)n1,-7,1.18
Cc1ccc(S(=O)(=O)NC[C@H]2OC[C@@H](NC3COC3)[C@@H]2O)cc1,-4,0.61
CCN(CC)C(=O)CCC(=O)Nc1cccc(-n2c(C)c[nH]c2=O)c1,-9,1
O=C(NC(c1ccccc1)c1ccccc1)[C@@H]1CCCc2c1[nH]c1ccc(Br)cc21,-3,0.57
Cc1cc(C)c(S(=O)(=O)N2CC(OCc3ccccc3Cl)C2)c(C)c1,-10,1.76
O=C(Cc1cccc(F)c1)N1CCC2(CC1)CN(c1ncccn1)C[C@@H]2CO,-9,1.01
O=C(CCn1cccn1)NC[C@H]1CCCN1C(=O)CCn1cccn1,-13,1.88
COc1ccc(OC)c(NC(=O)N2CCC[C@@H]2CN2CCCCC2)c1,-11,2.03
CN(CC(=O)Nc1sc2c(c1C(N)=O)CCC2)Cc1cccs1,20,-2.35
O=C(NC1(CN2CCN(c3ccc(F)cc3)CC2)CC1)c1cccnn1,-13,1.42
O=C(NC[C@H](O)c1ccc(-c2ccco2)o1)c1ccc2c(c1)OCO2,21,-2.88
CC(C)(C)Oc1ccc(C(=O)N2CC[S@+]([O-])C(C)(C)C2)cn1,-2,0.27
Cc1ccccc1CC(=O)N1CCc2nncn2CC1,-6,0.78
CC(C)NS(=O)(=O)Cc1ccccc1C#N,4,-0.6
COc1ccc([C@H]2Oc3ccc(C)cc3-n3c(-c4ccc(C)cc4)c4c(=O)n(C)c(=O)n(C)c4c32)cc1,-10,1.7
CC(CNC(=O)NCC(O)C1CC1)c1ccc(F)c(F)c1 (stereo not drawn),36,-4.85
O=C(CCc1c(-c2ccc(Cl)cc2)nc2ccc(-c3ccccc3Cl)cn12)N1CCOCC1,10,-1.12

Structure (SMILES),% Inhibition [%],Z score
O=C(O)[C@@H]1CC[C@H](C(=O)N(CCc2ccccc2F)C2CCCC2)O1,-2,0.36
CC1(C)CC(C)(C)c2ccccc2CN1,3,-0.41
CC(C)C1NC2(C(=O)Nc3ccccc32)C2C(=O)N(c3cccc4ccccc34)C(=O)C12 (stereo not drawn),4,-0.51
COc1cc(OC)nc(NS(=O)(=O)c2c(C)nn(C)c2C)n1,-8,1.27
CN1N=C(C(=O)NCCc2ccc3c(c2)OCCO3)CCC1=O,-1,0.19
CCc1ccc(-n2c(=O)c3c(n2CC(=O)Nc2ccc(C)c(F)c2)Oc2ccc(Cl)cc2C3)cc1,-15,2.55
CC[C@H](Nc1ccc(N2CCNC(=O)C2)nc1)c1ccccc1,-5,0.97
CC1CCc2c(cc(-c3ccccc3)n2-c2ccc(C(=O)NCC3CCCO3)cc2)C1 (stereo not drawn),-12,2.25
c1ccc(-n2nc(-c3nnc(-c4ccncc4)[nH]3)c(N3CCCC3)n2)cc1,-49,5.73
CCCC(C)(CC)C(=O)NCC1CCCC(O)C1 (stereo not drawn),2,-0.27
CC[C@H](C)C(=O)N1CCCN(C2=NS(=O)(=O)C(c3ccccc3)=C2C)CC1,-2,0.45
CCn1cc(-c2cc(-c3sc(N)nc3C)nc(N)c2C#N)cn1,5,-1.06
O=C(C1CCC1)N1CCC2(CC1)C[C@@H](Cc1cccc(F)c1)CCO2,-9,1.13
CCOc1ccc(N2C[C@@H](C(=O)NCc3ccc(C)n3C)CC2=O)cc1,-5,0.86
O=C1CNC(=O)N1CC(=O)N(Cc1ccccc1)[C@H]1CCCC[C@@H]1O,6,-0.72
O=C(c1ccccn1)N1CC[C@H]2COC(=O)N2c2cc(F)ccc2C1,5,-0.68
OCC1(CN[C@H](C2=CCCCC2)C2CCCCC2)COC1,-5,0.91
COc1ccc(-c2cc(C[C@@H]3CC[C@H](O)[C@@H](CNC(=O)Nc4ccccc4)O3)no2)cc1,-1,0.12
COc1ccc(-c2nc(CCNS(=O)(=O)c3ccc(C)cc3C)n[nH]2)cc1,-11,2.09
Cc1cc(Br)c(OCc2ccc(-c3nnco3)cc2)c(Br)c1,-3,0.45
COC[C@H](C)N(Cc1ccccc1OC)Cc1ccnn1C,-14,1.7

Structure (SMILES),% Inhibition [%],Z score
CC(C)(Oc1cc2c(cc1-c1cccc(C(N)=O)c1)CCO2)C(=O)O,-2,0.31
CCCn1cnc2cc(-c3noc(-c4sc(C)nc4C)n3)ccc21,7,-0.96
CC1CN(CN2C(=O)NC3(CCCCC3)C2=O)CC(C)O1 (stereo not drawn),15,-1.72
Cc1sc2ncnc(NC(=O)c3cccc(C#N)c3)c2c1C,0,-0.07
CN(C[C@@H](O)Cc1ccccc1)S(=O)(=O)C1COC1,2,-0.41
Cc1ccc2oc(NCC3(S(C)(=O)=O)CCOCC3)nc2c1,-2,0.23
O=C(NCc1ccccn1)c1ccc(Nc2c(Oc3ccc4c(c3)CCC4)cnn(-c3ccc(Cl)c(Cl)c3)c2=O)cc1,-8,0.73
Cc1cc(NC(=O)c2cn([C@H]3CCS(=O)(=O)C3)nc2C(C)C)[nH]n1,-7,0.8
O=S(=O)(N1CCOCC1)N1CC[C@H](Oc2ccncc2Cl)C1,3,-0.6
Nc1cc(C(=O)N2CCC[C@]3(CCC(=O)N(C4CCCC4)C3)C2)n[nH]1,1,-0.18
O=C1N(CC2CC2)CCC[C@@]12CCN(Cc1c[nH]nc1-c1cccc(F)c1)C2,-14,2.04
Cc1nnc(-c2c(C)[nH]c(C)c2S(=O)(=O)Nc2ccc(Cl)cc2Cl)o1,-18,3.48
C=CCN1CCC(NCCC(C)(C)C)CC1,-7,0.94
Cn1cnc(-c2cccc(C3CCC3)c2)c1CO,5,-0.98
O=C(Nc1ccc(Cl)cc1)C(=O)N1CCOCC1,-12,1.02
CC(C)NC(=O)NCCc1cccs1,-14,2.24
CC1CCN(C[C@@H]2OC[C@H](NCc3ccc(F)cc3)[C@H]2O)CC1,16,-1.88
CCCC[C@H](CC)C(=O)NCc1cccc(NC(N)=O)c1,-9,1.27
CCc1nnc(CN[C@@H](C)c2cc(C)oc2C)o1,-3,0.5
COCc1nc(C)c(CNC(=O)[C@H](C)n2ccnc2)s1,-5,0.64
O=C(Cn1nc2c(Oc3ccccc3)nc3ccccc3n2c1=O)Nc1ccc2c(c1)OCO2,-15,2.05

# Reference: ChEMBL document CHEMBL4888484, “Replenishing the malaria drug discovery pipeline: Screening and hit evaluation of the MMV Hit Generation Library 1 (HGL1) against asexual blood stage Plasmodium falciparum ,using a nano luciferase reporter read-out” (2022)
